Our source for the inhibition values is PubChem BioAssay AID485344 (National Center for Advancing Translational Sciences (NCATS), 2010).

Screen size: about 340,000 compounds; about 6,900 (2%) were called active. Rule as the data show it: active = inhibition above about 30%; inactive = below that, where a call was filed. The list shows a part of the results, in another mix than the full data. The source gives no active or inactive call for entries shown without one.

Sequence of UniProt P14416 (P14416 whole entry, looked up): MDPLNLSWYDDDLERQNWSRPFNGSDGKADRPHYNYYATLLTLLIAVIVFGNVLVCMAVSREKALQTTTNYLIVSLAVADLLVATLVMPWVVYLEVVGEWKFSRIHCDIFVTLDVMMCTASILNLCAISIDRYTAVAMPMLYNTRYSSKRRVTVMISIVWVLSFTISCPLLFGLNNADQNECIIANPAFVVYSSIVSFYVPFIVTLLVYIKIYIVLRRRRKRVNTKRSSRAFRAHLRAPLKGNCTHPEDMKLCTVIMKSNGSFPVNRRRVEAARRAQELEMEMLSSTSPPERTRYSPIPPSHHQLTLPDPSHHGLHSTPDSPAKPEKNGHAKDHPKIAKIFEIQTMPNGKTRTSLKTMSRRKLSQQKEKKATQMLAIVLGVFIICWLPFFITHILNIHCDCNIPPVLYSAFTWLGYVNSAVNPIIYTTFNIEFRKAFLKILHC

This test addresses D(2) dopamine receptor (Homo sapiens) (UniProt P14416). The experiment in a line: HTS Assay for Allosteric Antagonists of the Human D2 Dopamine Receptor: Primary Screen for Antagonists. Also: 0% is about no effect. The settings on record: HEK293 TREx D2 cells, calcium flux, dopamine EC80; at 10 µM; stronger effect = higher value. In short, it runs like this:
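In this primary screen, negative modulation is detected by tracking calcium flux after an EC80 dopamine challenge in inducible HEK293 T-REx D2 cells preexposed to test compound for 180 s.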
On the technique in general: Calcium assays in cells follow changes in intracellular calcium, usually with a dye or a luminescent sensor.
As usually defined, the inhibition is the change of the read-out against control, counted positive when it falls. Turning to `NC[C@@H]1O[C@H](C23CC4CC(CC(C4)C2)C3)Cc2c1ccc(O)c2O`, the inhibition is active: 65.8%.

Consider `CCOc1ccccc1NC(=O)CC1C(=O)NCCN1C(=O)c1ccc(F)cc1` (configuration not stated), for which the inhibition was -0.541%.

As for `COc1ccc(OC)c(Nc2nc3ccccc3n3c(C)nnc23)c1`, the inhibition turned out to be 4.48%.

For `COc1cc(NC(=O)CSc2nc(C)c(C)c(C)n2)cc(OC)c1`, the inhibition was active: 48.3%.

For the molecule `Cc1ccc(NC(=O)c2ncn(-c3ccccc3)n2)cc1Cl`, the inhibition stood at 10.2%.

Take `Cc1nc(-n2nc(C)c(Cc3ccccc3Cl)c2C)sc1C(=O)N1CCCCC1C` (configuration not stated): the inhibition was -3.85%.

Take `COc1ccc(-c2nc(C(=O)Nc3cccc(C(C)=O)c3)nn2-c2ccc(Cl)cc2)cc1`: the inhibition turned out to be 3.38%.

On to `CCC(=O)Oc1ccc(C(=O)Nc2c[nH]c(=O)[nH]c2=O)cc1`, for which the inhibition is active: 34.6%.

Consider `Cc1ccc(NC(=O)CS(=O)(=O)c2nc(-c3ccc(C)cc3)cn2-c2ccc(C)cc2)cc1`, for which the inhibition was 13.3%.

As for `CCCCN(C)CCNC(=O)c1cc(=O)[nH]c2ccc(S(=O)(=O)N3CCCCCC3)cc12`, the inhibition was -11.7%.

Regarding `Cc1ccc(CNC(=O)c2cnc(N(C)C)nc2)cc1`, the inhibition is -1.14%.

Consider `Cc1cc(NC(=O)c2ccc(-c3ccc(Cl)cc3)o2)cc(-c2nc3ncccc3o2)c1O`, for which the inhibition stood at 5.21%.

With `COCCNC(=O)C(=O)NCC(c1ccc2c(c1)OCO2)N1CCOCC1` (configuration not stated), the inhibition amounted to 24%.

With `COC(=O)c1ccc(OCC(O)Cn2cnc3cc(C)c(C)cc32)cc1` (configuration not stated), the inhibition was 6.35%.

In the case of `CCN(C(=O)CSc1ncc(S(=O)(=O)c2ccc(C)c(Cl)c2)c(=O)[nH]1)c1cccc(C)c1`, the inhibition was -16.2%.

Regarding `COCCCNC(=O)c1c(NC(=O)c2nc(S(C)(=O)=O)ncc2Cl)sc2c1CCCC2`, the inhibition is -8.41%.

With `Cc1cc2ccccc2n1CCNC(=O)COc1ccccc1`, the inhibition is active: 39%.

Consider `Cc1cc(NC(=O)CCCn2c(C)c3cnn(-c4ccccc4)c(=O)c3c2C)ccc1Br`, for which the inhibition was -9.99%.

Regarding `CCOc1ccccc1NC(=O)CN1C(=O)CC(c2ccco2)Sc2ccccc21` (configuration not stated), the inhibition is -1.57%.

In the case of `Cc1cc(C)cc(C(=O)N(Cc2nc(-c3ccc(Cl)cc3)no2)C(C)C)c1`, the inhibition is -9.16%.

For the molecule `Cc1cccc(N(CC(=O)Nc2ccc(Br)cc2)S(C)(=O)=O)c1C`, the inhibition was found to be 12.8%.

Turning to `COc1ccc(C(=O)NCc2ccc3c(c2)CCN3C(=O)c2ccncc2)cc1`, the inhibition is -12.2%.

On to `COc1ccc(OC)c(NC(=O)c2c(NCc3ccc(C)o3)sc3c2CCC(C)C3)c1` (configuration not stated), for which the inhibition was -2.01%.

As to `CC(C)c1ccc(S(=O)(=O)c2nnn3c2nc(NC2CCCC2)c2sccc23)cc1`, the inhibition was -0.374%.

As for `Cc1ccc(CSCC(=O)N2CCN(c3ccc(F)cc3)CC2)cc1`, the inhibition was found to be 16.1%.

As to `CC(=O)c1cccc(S(=O)(=O)NCCc2csc3nc(-c4ccc(F)cc4)nn23)c1`, the inhibition is -9.23%.

For the molecule `Cc1nc(CC(=O)Nc2cccc(C)c2C)cs1`, the inhibition is -16.3%.
